Results reported in the supplement of paper PMC3334620.
Over roughly 33,000 sequences, “E-score (-0.5 to 0.5)” has its median near -0.04; the highest 2% begin near 0.36. This is one part of the list.

target: T1, Hmlalpha2 (UniProt P0CY09); experiment: PBM E-score (8-mer binding enrichment) (E-score (-0.5 to 0.5)); higher = stronger / more preferred TF binding; most listed sequences are background and not binding sites; conditions: protein concentration: 200 nM; construct: GST-full length
T1 sequence: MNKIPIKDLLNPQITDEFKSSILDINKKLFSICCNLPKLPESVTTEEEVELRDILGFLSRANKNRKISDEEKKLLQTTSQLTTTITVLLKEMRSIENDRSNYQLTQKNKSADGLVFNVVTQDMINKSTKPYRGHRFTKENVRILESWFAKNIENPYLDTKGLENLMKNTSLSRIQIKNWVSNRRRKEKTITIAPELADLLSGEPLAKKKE
Outline: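 E-scores (a modified Wilcoxon-Mann-Whitney statistic) were assigned by the Universal PBM Analysis Suite to every ungapped eight-base word pooled with its reverse complement. The input came from universal all-10-mer Agilent arrays made double-stranded by primer extension and probed with GST-tagged yeast transcription factors at about 100-200 nM. Fluorescent anti-GST detected bound protein, and masliner normalised the scans.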

First: TATAGACA
Second: ATTCGAGC
The “PBM E-score” value of the first is higher: 0.205 for the first, -0.0797 for the second.

First: AGGCGTTC
Second: CGCTGCCA
The “PBM E-score” value of the first is higher: -0.0931 for the first, -0.207 for the second.

First: CCACGATC
Second: GTCTTTGA
The “PBM E-score” value of the first is higher: 0.172 for the first, 0.0224 for the second.

Going from AGCAGACG to ACGTTTAT, the “PBM E-score” value rises from -0.26 to 0.182.

First: CAACATCA
Second: TAGGTACA
The “PBM E-score” value of the first is higher: 0.306 for the first, 0.161 for the second.

Compared with CCTGCGGA, ACCCCGGC is lower in “PBM E-score” value: -0.117 for the first, -0.126 for the second.

First: ACCCCCCC
Second: CTCAAGTA
The “PBM E-score” value of the first is lower: -0.385 for the first, 0.127 for the second.

First: GATAACGC
Second: AGGCCAGC
The “PBM E-score” value of the first is higher: 0.199 for the first, -0.178 for the second.

Compared with CAGATACA, CGATAACG is lower in “PBM E-score” value: 0.304 for the first, 0.0685 for the second.

First: CATGCATC
Second: ACCAAAAT
The “PBM E-score” value of the first is higher: 0.127 for the first, 0.0777 for the second.

First: TACCCGTA
Second: CTCCTACC
The “PBM E-score” value of the first is higher: -0.0142 for the first, -0.275 for the second.

Going from ATATCGGA to CAGCCTGG, the “PBM E-score” value falls from -0.0245 to -0.219.

First: GTACGGAA
Second: AGACTGTG
The “PBM E-score” value of the first is lower: -0.0247 for the first, 0.0767 for the second.

Compared with AGTTGTTC, CAAAAAGG is lower in “PBM E-score” value: 0.095 for the first, -0.141 for the second.

First: ATATCCGC
Second: CTAATGTC
The “PBM E-score” value of the first is lower: -0.118 for the first, 0.00838 for the second.

First: TACGGGGA
Second: ATCAGCCA
The “PBM E-score” value of the first is higher: -0.243 for the first, -0.308 for the second.

First: AGGCCATC
Second: AGCAGTTC
The “PBM E-score” value of the first is lower: -0.215 for the first, -0.11 for the second.

First: AAATGGAC
Second: TCAGGTAA
The “PBM E-score” value of the first is higher: 0.127 for the first, 0.0489 for the second.

Going from CGTTATAA to TCACTCCA, the “PBM E-score” value falls from 0.222 to -0.183.

Going from CAGCGCTC to ATTAAAGC, the “PBM E-score” value rises from -0.155 to 0.0897.

First: CGCGTAAC
Second: CGGTCAGA
The “PBM E-score” value of the first is higher: 0.342 for the first, -0.199 for the second.

First: CTTCGCGA
Second: TCTTATAA
The “PBM E-score” value of the first is lower: -0.132 for the first, 0.121 for the second.

Going from TCGGATAA to AAAAGGGT, the “PBM E-score” value falls from 0.0696 to -0.103.

Going from AGTCCCCA to ATCGCCGA, the “PBM E-score” value rises from -0.288 to -0.162.

First: CATTCGCC
Second: AAAGATTT
The “PBM E-score” value of the first is lower: -0.142 for the first, -0.0325 for the second.

First: CGTTATCC
Second: CTCGGATC
The “PBM E-score” value of the first is higher: 0.0446 for the first, -0.213 for the second.

First: CAACTCTG
Second: AACAGACC
The “PBM E-score” value of the first is lower: -0.11 for the first, 0.172 for the second.

Compared with CCTGACCG, ACGCGGTA is higher in “PBM E-score” value: -0.26 for the first, 0.146 for the second.

First: GTTCAGTA
Second: GCATATAC
The “PBM E-score” value of the first is higher: 0.174 for the first, 0.0337 for the second.

First: CCGGTGCC
Second: AGGCTGTG
The “PBM E-score” value of the first is lower: -0.378 for the first, -0.019 for the second.

Going from ACCTAGCC to ATGCCATC, the “PBM E-score” value rises from -0.205 to -0.0946.

Going from AACCCGGA to GGGCAAAA, the “PBM E-score” value rises from -0.174 to -0.0548.

Going from GCAGGGAC to GAACGCTA, the “PBM E-score” value falls from -0.171 to -0.221.

Compared with GCTAGAGC, ACGGGCAT is lower in “PBM E-score” value: 0.0126 for the first, -0.0838 for the second.

Compared with CCTTCCAA, GTATAGCA is higher in “PBM E-score” value: -0.188 for the first, 0.165 for the second.

Compared with TACACCTA, CATAGGCG is lower in “PBM E-score” value: 0.118 for the first, -0.0257 for the second.

Compared with CAGTCCGG, CACAACAC is higher in “PBM E-score” value: -0.0752 for the first, 0.306 for the second.

First: ATTGCTCC
Second: AAATCATT
The “PBM E-score” value of the first is lower: -0.332 for the first, 0.0564 for the second.

First: CTACGGTC
Second: CACAGTAC
The “PBM E-score” value of the first is lower: -0.184 for the first, 0.142 for the second.

First: CTCCATTC
Second: CTCGGGGC
The “PBM E-score” value of the first is lower: -0.305 for the first, -0.159 for the second.

Going from AGAATCCC to CCCTTTTC, the “PBM E-score” value falls from -0.0598 to -0.175.

Compared with GATTCTGA, CAATACTG is lower in “PBM E-score” value: -0.0885 for the first, -0.12 for the second.

Going from ATCTTTAC to AACGTAAG, the “PBM E-score” value falls from 0.307 to 0.085.

Compared with CTTGCAGC, GCGTACAC is higher in “PBM E-score” value: -0.026 for the first, 0.247 for the second.

Compared with ATCGGATG, GCAAGCTA is higher in “PBM E-score” value: -0.151 for the first, 0.0155 for the second.

First: ATTAGATC
Second: CACCTACA
The “PBM E-score” value of the first is lower: 0.0379 for the first, 0.109 for the second.

Compared with AACTGACT, CGGTCCGC is lower in “PBM E-score” value: -0.0831 for the first, -0.225 for the second.

Compared with ACCACAAG, ACGATCCG is lower in “PBM E-score” value: -0.12 for the first, -0.144 for the second.

Compared with ATTGCGTG, GGTCGAGA is lower in “PBM E-score” value: 0.203 for the first, -0.0719 for the second.

Going from ATGTCGAG to ACTACAAA, the “PBM E-score” value falls from 0.224 to 0.17.

Compared with TTAGCTAA, AAGTAATA is higher in “PBM E-score” value: 0.192 for the first, 0.24 for the second.

First: AGTTCAAT
Second: CCAAGAAC
The “PBM E-score” value of the first is lower: -0.0837 for the first, -0.074 for the second.

Going from GTCCACAA to GCACACAC, the “PBM E-score” value rises from -0.00027 to 0.178.

First: ACCTAATG
Second: CCGCCTAC
The “PBM E-score” value of the first is lower: -0.0242 for the first, 0.0229 for the second.

Going from TAATCGTA to CCCAAAAA, the “PBM E-score” value falls from 0.191 to -0.0325.

Compared with TCCTGAGA, AGAGGATC is lower in “PBM E-score” value: -0.0663 for the first, -0.204 for the second.

Going from GTATGCCA to CAATCTTA, the “PBM E-score” value rises from -0.254 to 0.159.

Compared with AACGCGGT, CTTGTTTA is higher in “PBM E-score” value: 0.238 for the first, 0.311 for the second.

Going from ACTTTCCC to ACCAGCGG, the “PBM E-score” value falls from -0.13 to -0.131.

Compared with CCGTGATC, ACCTTGCA is higher in “PBM E-score” value: -0.333 for the first, -0.157 for the second.

Compared with TCAACGAA, AGCGAAAA is lower in “PBM E-score” value: 0.16 for the first, -0.129 for the second.

First: ATGGCCAG
Second: CCTCAAGA
The “PBM E-score” value of the first is lower: -0.0836 for the first, -0.00472 for the second.

Going from AGGTAACT to ACCAACAA, the “PBM E-score” value rises from 0.0319 to 0.198.

First: CCCTTTCC
Second: AAAGAGAA
The “PBM E-score” value of the first is lower: -0.227 for the first, -0.11 for the second.

Going from GAAATATC to GCCCAAAC, the “PBM E-score” value rises from -0.159 to -0.104.

Compared with AGTATGTC, AGCCGGCC is lower in “PBM E-score” value: 0.201 for the first, -0.119 for the second.

First: ACCTACTC
Second: CACGGTCA
The “PBM E-score” value of the first is lower: -0.0541 for the first, 0.121 for the second.

Compared with AAGTCAGA, AAGCTTGA is lower in “PBM E-score” value: -0.153 for the first, -0.185 for the second.

First: CGCCAGTC
Second: ATAAGCTA
The “PBM E-score” value of the first is lower: -0.225 for the first, 0.0838 for the second.

Going from CTTAACCC to ACTTGCAG, the “PBM E-score” value rises from -0.0467 to -0.0185.

Going from AAAGTCTT to TTGAAAAA, the “PBM E-score” value rises from -0.193 to 0.115.

Going from CCCCCAGA to AGAGAAGA, the “PBM E-score” value rises from -0.415 to 0.0365.

First: ACGACGAA
Second: ACTCTACT
The “PBM E-score” value of the first is higher: 0.138 for the first, 0.0373 for the second.

Going from CACCCAAC to ATTGCGTC, the “PBM E-score” value rises from -0.174 to -0.0657.

First: CGTAATTC
Second: AACTTATG
The “PBM E-score” value of the first is higher: 0.321 for the first, 0.19 for the second.

Going from CTAGCTTA to ATAGCGGA, the “PBM E-score” value falls from 0.00657 to -0.149.

First: GGACAATA
Second: AGCGGAAC
The “PBM E-score” value of the first is higher: -0.0131 for the first, -0.181 for the second.

Compared with CCTTGCCG, AGAAAAAT is higher in “PBM E-score” value: -0.228 for the first, 0.144 for the second.

Compared with ACTCGAGG, GACAGCGC is higher in “PBM E-score” value: -0.114 for the first, 0.0293 for the second.

First: GACGGAAC
Second: TTATCCAA
The “PBM E-score” value of the first is lower: -0.117 for the first, 0.19 for the second.

First: AGGTCTGA
Second: AGCAGTGG
The “PBM E-score” value of the first is higher: -0.0612 for the first, -0.329 for the second.

First: CTGCGACC
Second: AACGCCGA
The “PBM E-score” value of the first is lower: -0.349 for the first, 0.165 for the second.

First: GTTAGTGA
Second: AGAATTGA
The “PBM E-score” value of the first is higher: 0.152 for the first, -0.00062 for the second.

First: AAAGTCGG
Second: ACGTGTGC
The “PBM E-score” value of the first is lower: -0.0953 for the first, 0.172 for the second.

First: AGAACAAG
Second: AATGATCC
The “PBM E-score” value of the first is higher: 0.172 for the first, 0.0156 for the second.

First: AAGAGGCA
Second: GTTGTATA
The “PBM E-score” value of the first is lower: -0.184 for the first, 0.38 for the second.
